According to PubChem BioAssay AID1347073 (National Center for Advancing Translational Sciences (NCATS), 2019):
Hit rate of the full screen: of about 45,000 compounds, about 200 (0.44%) were called active. Roughly 7% stayed inconclusive and do not appear here. The call rests on the fitted dose curve; in most records, active means well fitted activation curve with a large enough effect; inconclusive means small, poorly fitted or top-dose-only effect; inactive means no such curve, though single readings can be large or run the other way. This is one part of the list.

Assay: qHTS of TDP-43 Inhibitors: NCGC Sytravon Library Screen; further: nearly all actives have a fitted effect of over 55% in size; on growth rescue (activation): 0% is about no effect
Details: yeast TDP-43 toxicity rescue, BacTiter-Glo growth, 24 h; series mostly up to 46.1 µM; growth rescue (activation): at the top concentration
How it was run: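 TDP-43-expressing yeast, pregrown in raffinose, seeded at OD600 0.02 in galactose medium with compound for 24 hr at 30 deg C. Growth read by BacTiter-Glo luminescence, so rescue of toxicity appears as activation.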
Potency means the concentration at half of the fitted maximal effect.

| Structure (SMILES) | growth rescue (activation) | Potency |
| --- | --- | --- |
| COc1cc(CC(=O)OCC(=O)Nc2sccc2C(N)=O)cc(OC)c1OC | inactive: 4.09% |  |
| O=C1N(Cc2cccc(Cl)c2)C[C@@H]2C[C@@H](c3cccn3-c3cccnc3)N3CCC[C@@]123 | inactive: 8.38% |  |
| Cc1cccc(C)c1OCc1cc(C(=O)N2CCCCCCC2)no1 | inactive: 17.5% |  |
| O=[N+]([O-])c1cccc(/C=C/c2ccncc2)c1 | inactive: 3.54% |  |
| C=CCn1c(C)cc(C2=NNC(=NCC)SC2)c1C | inactive: -19.4% |  |
| O=C1C=CC(=O)N1CCNc1ncc(C(F)(F)F)cc1Cl | inactive: -94.5% |  |
| Cc1ccc(SCC(=O)N2c3ccccc3Sc3ccccc32)cc1 | inactive: 4.93% |  |
| CC(=O)Nc1ccc(NC(=O)C(C)OC(=O)C2(c3ccc(Cl)cc3)CCCC2)cc1 (stereo not drawn) | inactive: 26.1% |  |
| COCCCn1c(-c2ccccc2Cl)n[nH]c1=S | inactive: -7.57% |  |
| Nc1nc(SCC(=O)Nc2cc(Cl)c(Cl)cc2Cl)n[nH]1 | inactive: 7.87% |  |
| O=C(NC1CCCc2ccccc21)C(Cc1ccccc1)NS(=O)(=O)c1cccs1 (stereo not drawn) | inactive: 28.7% |  |
| O=C(N/N=C/c1coc2ccccc2c1=O)c1cn(-c2ccccc2)nc1-c1ccc(F)cc1 | inactive: 6.02% |  |
| COc1cc(NC(=O)c2cc(S(=O)(=O)N3CCCCC3)ccc2N2CCOCC2)cc(OC)c1OC | inactive: 1.81% |  |
| CCCN1CNC(=S)N(c2cccc(C)c2)C1 | inactive: -13.7% |  |
| COCCn1c(SCC(=O)NCc2ccc(F)cc2)nc2ccccc21 | inactive: 14.6% |  |
| Cc1cc(=O)n2c3ccccc3n(CC(O)CN3CCOCC3)c2c1C#N (stereo not drawn) | inactive: -0.404% |  |
| Cc1cccc2nc(CSc3nncn3-c3ccccc3)cn12 | inactive: -7.38% |  |
| CC(NC(=O)COC(=O)/C=C/c1ccc(Cl)cc1)c1ccccc1 (stereo not drawn) | inactive: 10% |  |
| COc1cc(C(=O)Cc2nc3ccccc3n2C)cc(OC)c1OC | inactive: -18.6% |  |
| COc1ccc(NS(=O)(=O)c2c(F)cc(F)c(Cl)c2F)cc1S(=O)(=O)N1CCCCC1 | inactive: -24.1% |  |
| O=C(O)c1ccccc1N/N=C/C1=C(N2CCOCC2)C(=C\c2ccccc2)/CC1 | inactive: 14.2% |  |
| COc1cc(C(=O)OCc2cc(=O)c(O)co2)ccc1OC(F)F | inactive: 1.93% |  |
| Cn1c(CNC(=O)c2ccccc2F)nnc1SCC(=O)Nc1nncs1 | inactive: 0.059% |  |
| Cc1cccc(N2CC(C(=O)Nc3nccs3)CC2=O)c1C (stereo not drawn) | inactive: 8.24% |  |
| CN(C)c1ccc(C2CC(=O)C=C(Nc3ccccc3N)C2)cc1 (stereo not drawn) | inactive: 0.0136% |  |
| CCc1nc2ccc(C(=O)NCCC(C)C)cn2c1N(C)Cc1nccs1 | inactive: -13.4% |  |
| CC(NC(=O)COC(=O)CCc1ccc(S(=O)(=O)N2CCOCC2)cc1)C1CC2CCC1C2 (stereo not drawn) | inactive: 1.99% |  |

| Structure (SMILES) | growth rescue (activation) | Potency |
| --- | --- | --- |
| Nc1cc(=O)[nH]c(=O)n1CCCc1ccccc1 | inactive: 4.74% |  |
| O=C(Nc1cccc(S(=O)(=O)NC2=NCCCCC2)c1)c1cc(-c2ccccc2)nc2ccccc12 | inactive: -17.4% |  |
| CCOC(=O)C1(Cc2ccccc2C(F)(F)F)CCN(C2CCN(C(C)C)CC2)CC1 | inactive: -2.09% |  |
| Cc1ccc(S(=O)(=O)Nc2nc3ccc(N)cc3s2)cc1 | inactive: -3.29% |  |
| Cc1ccc(N2C(=O)NC(NC(=O)C(C)(C)C)(C(F)(F)F)C2=O)cc1C (stereo not drawn) | inactive: 9.05% |  |
| Fc1ccccc1-n1ncc2c1ncn1nc(Cc3ccccc3)nc21 |  | active: 11.2 µM |
| COc1ccc(NS(=O)(=O)c2cc(NC(=O)C3CC3)ccc2N2CCCCC2)cc1 | inactive: 29% |  |
| CCOC(=O)C1(C)CCN1C(=O)c1cccs1 (stereo not drawn) | inactive: 1.8% |  |
| COc1ccc(OC)c(S(=O)(=O)Nc2cc(C(=O)O)ccc2N2CC3CC(C2)c2cccc(=O)n2C3)c1 (stereo not drawn) | inactive: 0.409% |  |
| CN(CC(=O)Nc1ccc(Cl)cc1)C(=O)CCc1ccccc1 | inactive: 31.3% |  |
| COc1ccc(C(=O)NCc2csc(C(C)C)n2)cc1OC1CCN(C(C)=O)CC1 | inactive: 2.52% |  |
| CSCC[C@H](NC(=O)c1cccc(S(=O)(=O)N2CCCCCC2)c1)c1nc2ccccc2[nH]1 | inactive: 10.1% |  |
| CC(=O)CC(=O)Nc1ncc(C(F)(F)F)cc1Cl | inactive: -28.5% |  |
| Cc1ccc(NC(=O)CCn2c(=O)[nH]c3ccsc3c2=O)cc1F | inactive: 4.25% |  |
| Cc1ccc(C2C(C(=O)c3sc(-c4ccccc4)nc3C)=C(O)C(=O)N2CCN(C)C)o1 (stereo not drawn) | inactive: 25.9% |  |
| CCCS(=O)(=O)N1CCCC(C(=O)NC2CCCC(C)C2C)C1 (stereo not drawn) | inactive: -16.4% |  |
| CCCOc1ccc(NC(N)=O)cc1OCCC | inactive: 39.6% |  |
| COc1ccc(CCN(C)CC(O)COc2ccc(C(C)=O)cc2OC)cc1OC (stereo not drawn) | inactive: 13.8% |  |
| CSCCC(C(=O)NCc1cccs1)N1C(=O)c2ccccc2C1=O (stereo not drawn) | inactive: 29.2% |  |
| CC(=O)c1c(C)[nH]c(C(=O)COC(=O)C2CC2)c1C | inactive: 23.3% |  |
| CCOC(=O)c1cccc(NC(=O)Nc2ccc(OCC)cc2)c1 | inactive: 17.2% |  |
| O=C(CN(Cc1ccccc1F)S(=O)(=O)c1ccc(Cl)cc1)NCC1CCCO1 (stereo not drawn) | inactive: -6.94% |  |
| CCCC(=O)OCCNc1cc(Sc2nc3ccccc3[nH]2)c2nonc2c1[N+](=O)[O-] | inactive: -27.9% |  |
| CCS(=O)(=O)NCCNc1ccc([N+](=O)[O-])cc1 | inactive: 1.23% |  |
| O=C(NCc1ccccc1)C(c1ccc(F)cc1)N(C(=O)c1csnn1)C1CC1 (stereo not drawn) | inactive: -0.377% |  |
| N#Cc1ccccc1NC(=O)COc1c(Br)cc(Br)c2cccnc12 | inactive: 1.22% |  |
